# In the supplement of paper PMC5499739:
# The full ranking holds about 16,000 sequences; the median of “Z-score” is about -0.37, and the highest 2% start at about 3.1. This is one part of the list.
# Tested on: RBM10 RRM1-ZnF-RRM2 (GST-tagged construct)
# Experiment: RNAcompete 7-mer binding Z-score; higher = stronger binding preference
# Method: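 RNAcompete: 20 pmol GST-tagged RBM10 RNA-binding constructs were incubated with a designed RNA pool of about 241,000 sequences up to 41 nt (1.5 nmol) on glutathione beads for 30 min at 4 °C and washed. Bound RNAs were identified by microarray hybridisation. Each RNA 7-mer is scored by a one-sided Z-score of its enrichment, computed over probes that contain the 7-mer within longer pool sequences.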
row,Sequence,RNAcompete 7-mer binding Z-score
1,GACUAUU,-0.803
2,UGCACAG,-0.0233
3,AGCUCAG,-0.486
4,UCCGUGG,0.133
5,GCAGUGA,0.439
6,AAGCAUG,-0.0233
7,GUGUACG,0.956
8,GCAGGUG,1.86
9,CGGAAAG,1.91
10,GCUUAGU,-0.278
11,CGCGAAC,-0.435
12,ACAUCGG,0.184
13,AAAGAAU,-0.144
14,CUUAGUU,-0.471
15,UUUUGAC,-0.905
16,UUUUGGG,0.701
17,UUCAUUU,-0.737
18,UUCACUU,-0.792
19,UAAAGGC,0.745
20,UACCGUA,-0.42
21,UCAUGAA,-0.402
22,UUUUCUU,-0.701
23,CCCUCCG,-0.57
24,UAAAUUC,-0.504
25,CACAGGA,0.476

row,Sequence,RNAcompete 7-mer binding Z-score
1,GACUGCC,-0.788
2,CAGCCCG,-0.541
3,UUCCUAC,-0.792
4,CGACGUC,-0.734
5,UGGCCUA,-0.278
6,CGCUAUG,-0.344
7,CGACCAC,-0.413
8,UAGAUUG,0.126
9,AGCUCCU,-0.752
10,AAUCUCC,-0.814
11,GCAUUUA,-0.661
12,CUGUCUU,-0.959
13,CCUACUA,-0.912
14,GGAGAAA,1.66
15,GAAUAGA,0.76
16,CCUAAAG,-0.541
17,GACGAAG,1.49
18,AUCAUAU,-0.402
19,ACAUUAU,-0.515
20,CUAUAAU,-0.635
21,ACAAGUG,0.465
22,UGCGGUA,0.556
23,AGGUUCC,-0.00877
24,GUCACAC,-0.307
25,CGAGAUC,-0.391

row,Sequence,RNAcompete 7-mer binding Z-score
1,AAUGUCU,-0.661
2,CCGAUUA,-0.42
3,ACCUCAG,-0.694
4,AGAUCGU,-0.333
5,GCGUAAG,0.578
6,AAUUAAG,-0.0488
7,UAGUCUU,-0.748
8,ACAGGGU,3.11
9,CCUCGCC,-0.628
10,GUUCCCG,-0.606
11,CAAGCUU,-0.989
12,CUCACCA,-0.712
13,CGGGAGU,1.5
14,GAGAGAU,0.592
15,AUGGUUU,1.43
16,CUGCCAC,-0.836
17,GUAAGCA,0.392
18,UACGGAU,0.665
19,AGAAUUG,0.345
20,CUAUAAA,-0.457
21,AUCUAGA,-0.592
22,UGCAUUU,-0.905
23,UCAUGGU,0.0495
24,CCGCGGC,-0.307
25,AGCCUCG,-0.865

row,Sequence,RNAcompete 7-mer binding Z-score
1,AGAGCCA,-0.766
2,UAGAUCG,-0.286
3,UUACAAA,-0.329
4,UUGCUGG,-0.205
5,AUUGUCC,-0.817
6,ACUGACC,-0.857
7,ACGGCUG,0.0349
8,AGGUCAG,0.76
9,GUAUGAU,0.224
10,CAUCGCA,-0.624
11,GUAACGG,1.7
12,CCUGUAU,-0.806
13,ACUAUUU,-0.872
14,CCAGCAG,-0.0998
15,GCCGAUG,0.0604
16,UUAGGAG,2.01
17,UAUGGGG,3.19
18,AACACAG,0.374
19,ACGAACU,-0.482
20,AAUAUGG,1.27
21,UGUUUAA,-0.541
22,UUGGUGG,2.09
23,UAGCGUA,-0.147
24,ACGCCUC,-0.806
25,GUUGCUG,-0.133

row,Sequence,RNAcompete 7-mer binding Z-score
1,GUAGUGA,1.1
2,AAAAAUA,-0.271
3,GACAUAG,0.505
4,CCGAUUC,-0.81
5,UAGACGU,-0.118
6,UUACUAC,-0.774
7,CAGAGUA,0.483
8,AAGAACU,-0.344
9,ACGAAGA,-0.289
10,CGAAUCA,-0.304
11,CGGCUGA,-0.0306
12,AUCAUUG,-0.431
13,UGAGUAA,0.425
14,UCCGGUU,-0.358
15,AGAAGAA,1
16,GACACCG,-0.442
17,AGACAAA,0.111
18,CCUGACU,-0.843
19,CUGAUCA,-0.57
20,GAAGUCG,0.428
21,UCUCCUU,-0.774
22,CGUCUAC,-0.715
23,UCCUGAG,-0.522
24,GAGUAAU,0.323
25,GCUCACU,-0.846

row,Sequence,RNAcompete 7-mer binding Z-score
1,CUAUUCG,-0.795
2,GAAGUAG,1.39
3,UGAUUCA,-0.541
4,UUACCCA,-0.821
5,CCUUAGU,-0.752
6,CCAGUAA,-0.508
7,CAGUUUU,-0.715
8,AAUUUCC,-0.683
9,AGUGGAU,2.33
10,UGGGUCG,2.13
11,ACAAUCC,-0.639
12,CCCAUGA,-0.668
13,AGAAUCA,0.0167
14,UUAUCAA,-0.49
15,AGAAGGU,3.67
16,GUCGAAG,0.621
17,UUGCCAA,-0.592
18,GGGAGGA,3.24
19,GUCAAGC,-0.195
20,CAUGGAC,0.578
21,CUACUAA,-0.697
22,AGAACUA,-0.602
23,GGAGUAG,2.98
24,CUAUGUG,-0.369
25,GUGUAAU,0.0131

row,Sequence,RNAcompete 7-mer binding Z-score
1,CCUGUUG,-0.923
2,GAUUGCG,0.268
3,UUUCAAC,-0.777
4,UGUGCUC,-0.544
5,AGUUUAU,-0.453
6,UCCGAUC,-0.679
7,UCAUAUG,-0.384
8,GAGCCUC,-0.905
9,CCAUUAA,-0.701
10,UCUCUAA,-0.683
11,CUUCGUA,-0.628
12,UCGUCGA,-0.0998
13,GAGGAAC,1.82
14,GUAAAGC,0.341
15,GAAGAAU,0.447
16,GAUGCUA,-0.442
17,CUCCACG,-0.766
18,AUCGCGC,-0.471
19,UGCGUUG,0.104
20,GCGAGGC,1.59
21,GGACUUG,0.319
22,GGACGUU,0.497
23,GUUCAGC,-0.224
24,GCAAUGU,0.436
25,UCCAAAU,-0.708

row,Sequence,RNAcompete 7-mer binding Z-score
1,UGAGCCC,-0.435
2,UUCAUGG,0.184
3,CCCCUGG,-0.318
4,GAUUGAU,0.37
5,GCGACAU,-0.027
6,GCAAAUG,0.348
7,GGCUUCA,-0.428
8,CGGACGU,0.348
9,UCAGCAC,-0.581
10,CCCCAAA,-0.599
11,CCGCGUC,-0.712
12,CUGGAAG,0.508
13,GUGGCCC,0.0786
14,AAGGUAC,1.72
15,AGUAGGU,2.11
16,CGACGAC,-0.398
17,UGACAUG,0.246
18,GCAUCCU,-0.777
19,GUACGCU,-0.205
20,GAACAAG,1.24
21,AAGAUGA,0.363
22,UCGGAUC,-0.067
23,UAUCGCC,-0.723
24,AGUGACC,0.17
25,CUAUGCA,-0.49

row,Sequence,RNAcompete 7-mer binding Z-score
1,CUAUGGC,-0.395
2,CACCUAG,-0.333
3,GUCUGUA,-0.442
4,CCAAUUA,-0.42
5,GUAAGCG,0.971
6,GCGAUAU,0.0677
7,UGUGUGU,0.0859
8,GACUGGG,1.95
9,UCGGGUG,1.96
10,GUUAUGG,1.45
11,CAUCCUG,-0.719
12,GGGAUAA,3.36
13,AGUAAGG,3.47
14,CUUGCGA,-0.694
15,UUGAGAC,-0.286
16,UGAGGGU,3.92
17,AUUGUGC,-0.511
18,UAGGCAU,0.607
19,UCGUAGG,0.669
20,AAGGACC,1.56
21,AUUUCAU,-0.646
22,CUGCGUA,-0.555
23,AGGUGUU,0.873
24,GUUGGCU,0.0313
25,CGCGCCU,-0.872

row,Sequence,RNAcompete 7-mer binding Z-score
1,AUACCCC,-0.595
2,CGGGCGA,1.59
3,GUCACGU,-0.453
4,UGCGAUU,-0.653
5,CGAUAAA,-0.191
6,GUGAUGC,0.876
7,UGGGGGU,3.25
8,UCUCUUA,-0.821
9,GAUCACA,-0.326
10,CAUUACC,-0.668
11,UCAGUGC,-0.18
12,GUAUCAA,0.184
13,GGACUUA,0.232
14,GCACAGU,-0.118
15,UUAGGCA,0.592
16,UUGACCU,-0.839
17,GUGUCCG,-0.333
18,CUACGUG,-0.468
19,UACAAAG,-0.0379
20,AAACAGC,-0.402
21,GGAGCUG,1.5
22,UUAUUUA,-0.562
23,CUAGGAA,0.661
24,UUCUCUC,-0.777
25,UGAGUGC,0.217

row,Sequence,RNAcompete 7-mer binding Z-score
1,GCUGCGG,1.05
2,GAAACUC,-0.697
3,CAACAAG,0.0641
4,CUCGCUA,-0.726
5,GGAUCAG,1.9
6,UUCAACG,-0.555
7,GUCCCGG,0.199
8,AUGUCAA,-0.307
9,AUGGUCC,0.17
10,UGAGCUC,-0.562
11,AUUAUCC,-0.708
12,ACACUUC,-0.963
13,CAAUGCA,-0.362
14,GUAUAGA,0.927
15,CAGAUUC,-0.522
16,AUAAGGG,3.85
17,UUUGACC,-0.839
18,ACAAUCG,-0.173
19,CGAUGAU,-0.0343
20,UGGCGUA,0.778
21,CUAUCGG,-0.486
22,CAUCCGA,-0.497
23,CGAAUGU,-0.333
24,UAUGAAC,-0.195
25,GAGUCUG,-0.067

row,Sequence,RNAcompete 7-mer binding Z-score
1,GUUCUGC,-0.748
2,UACCGUC,-0.664
3,AAUCUAG,-0.326
4,GUUCCUA,-0.734
5,CUGUCCA,-0.734
6,UGGCGGA,2.2
7,GGUUACA,1.46
8,ACAUGUU,-0.442
9,AGUUUAC,-0.57
10,CAUGUAG,-0.0488
11,AUCAUCG,-0.588
12,ACCCUCA,-0.846
13,CAUCAAU,-0.602
14,UUCAACC,-0.737
15,AGCGGGU,3.01
16,GGUUAUC,0.785
17,AGCAAUG,0.301
18,UCGAGAA,0.0859
19,AUCAGGG,2.09
20,AAUAGCU,-0.417
21,AUGUCUG,-0.431
22,CUAGUUU,-0.803
23,UGCCAAG,-0.264
24,GCUCCGG,-0.235
25,UCACUUA,-0.741

row,Sequence,RNAcompete 7-mer binding Z-score
1,CUCAAUG,-0.293
2,AGCCUCA,-0.872
3,CCCUGGG,0.221
4,CACUUCG,-0.792
5,UCCGCCC,-0.803
6,ACAGCGC,-0.22
7,GAGCAAC,0.0204
8,ACAGUCA,-0.22
9,UUAACGA,-0.351
10,UUUUACA,-0.632
11,UUAAUAU,-0.475
12,UCAGGUG,1.27
13,AGAGGCC,-0.628
14,UAGCACC,-0.573
15,AACUUUA,-0.679
16,ACAAUGG,2.21
17,CGCUGGU,0.0058
18,CAUUCAG,-0.526
19,UUUGCAC,-0.679
20,CUGAUGG,0.29
21,GAAAUCA,-0.151
22,CCGUUUG,-0.916
23,UUUCCUA,-0.806
24,CGAGCAA,-0.0452
25,CCAGGAG,0.723

row,Sequence,RNAcompete 7-mer binding Z-score
1,CUGAGGU,0.508
2,GUCGUGC,-0.133
3,UUGCCUG,-0.861
4,CCGAAGU,-0.417
5,UAGUUCG,-0.296
6,CCGGUGG,1.15
7,UGAAACU,-0.464
8,UUAAGAU,-0.34
9,UACAAUU,-0.53
10,CCGAGGG,1.01
11,GAGAAUU,-0.0488
12,GGGUAAA,3.9
13,AAUCGUG,-0.162
14,CAGUGGG,2.93
15,UCUGCCU,-0.967
16,UCACGGC,-0.617
17,CUUCACU,-0.806
18,UAGCGGU,0.312
19,CUUAUGA,-0.777
20,CCUUUUA,-1.01
21,GGUUGAA,1.41
22,CAUAGCC,-0.737
23,ACUACCU,-0.821
24,CUGUACG,-0.398
25,UAAAGGA,1.64

row,Sequence,RNAcompete 7-mer binding Z-score
1,GCAUGCA,-0.147
2,GCUGCGC,-0.315
3,GCGAUUU,-0.606
4,GUCUUUA,-0.606
5,UUUAUAG,-0.617
6,UAGUAUU,-0.224
7,GCGUGGU,1.4
8,GGCGAAC,1.11
9,CCACCAA,-0.803
10,CGUAGGC,0.64
11,GUACGAC,-0.00512
12,CGGGGCG,2.68
13,GCUUUCU,-0.766
14,UUCAUAC,-0.857
15,CCCACUC,-0.715
16,UACACCG,-0.479
17,GCCACAC,-0.57
